# Among all 310,000 compounds or so, about 18,000 (5.8%) were called active. Inconclusive means that the source gave no clear call. Such entries were picked first, then a sample of the others. The call rests on the fitted dose curve; in most records, active means well fitted inhibition curve with a large enough effect; inconclusive means small, poorly fitted or top-dose-only effect, or another doubt; inactive means no such curve, though single readings can be large or run the other way. Potencies of inconclusive entries are left out as doubtful fits.
# Experiment: Primary qHTS for delayed death inhibitors of the malarial parasite plastid, 48 hour incubation
# Details: P. falciparum luciferase growth in erythrocytes; series mostly up to 28.7 µM
# Summary of the method: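 Firefly luciferase activity from engineered P. falciparum reports growth; inhibitors lower the luminescent signal. Cultures contained 2% hematocrit erythrocytes at 0.1% final parasitemia.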
# Potency means the concentration at half of the fitted maximal effect; tags describe the fitted curve by direction and shape.
row,SMILES,Potency
1,COc1ccc(C2=NN(C(=O)CN3CCCC3)C(c3ccc(OC)cc3)C2)cc1 (centres undefined),"inconclusive [inhibitor, single point]"
2,COCCCNC(=O)c1c(N)n(Cc2ccco2)c2nc3ccccc3nc12,"inconclusive [inhibitor, single point]"
3,CC(C)C(=O)Nc1ccccc1C(=O)N/N=C/c1ccc([N+](=O)[O-])cc1,"inconclusive [inhibitor, single point]"
4,CC(=O)c1ccc(Nc2c3c(nc4ccccc24)CCCC3)cc1,"inconclusive [inhibitor, single point]"
5,COc1ccc(/C=N/N(Cc2ccccc2)c2ccccc2)cc1O,"inconclusive [inhibitor, single point]"
6,COc1ccc(CC(=O)N(Cc2cc3cc(OC)ccc3[nH]c2=O)C(C)C)cc1,"inconclusive [inhibitor, full curve, poor fit]"
7,COc1cccc(Oc2cc(NN3CCCCC3)c([N+](=O)[O-])cc2[N+](=O)[O-])c1OC,inactive
8,CCN(CC)C(=O)CSc1nnc(-c2ccc(S(=O)(=O)N3CCCC3)cc2)o1,"inconclusive [inhibitor, single point]"
9,CC1CC(C)(C)NC(C)c2ccccc21 (centres undefined),inactive
10,COc1cc(C(=O)NCc2cc(C)nc3ccccc23)cc(OC)c1OC,"inconclusive [inhibitor, partial curve, poor fit]"
11,CC(C)n1cnc2c(Nc3cccc(F)c3)nc(NCCO)nc21,"inconclusive [inhibitor, single point]"
12,CCOC(=O)Nc1ccc2nc(Sc3ccc(Cl)cc3)sc2c1,active: 9.28 µM
13,CC(=O)NC(=S)Nc1ccc(NC(=O)c2cccs2)cc1,"inconclusive [inhibitor, partial curve, poor fit]"
14,Cc1cccc(N2CCN(C(=S)NC3CCCCC3)CC2)c1C,"inconclusive [inhibitor, partial curve, poor fit]"
15,CC1c2[nH]c3ccccc3c2CCN1S(C)(=O)=O (centres undefined),"inconclusive [inhibitor, single point]"
16,COc1cccc(-c2cc(C(=O)Nc3cnn(Cc4ccccc4C)c3)no2)c1,inactive
17,CCOC(=O)C(C)Oc1cccc2c(=O)n(CC(=O)Nc3ccc(OCC)cc3)ccc12 (centres undefined),inactive
18,O=C(COC(=O)CCNS(=O)(=O)c1ccccc1)NNC(=O)c1ccccc1,inactive
19,Cc1ccc(OCCn2ccc(=O)[nH]c2=O)cc1C,inactive
20,CCOC(=O)N1CCC(c2cc(=O)n3[nH]c(C)c(-c4ccc(F)cc4)c3n2)CC1,"inconclusive [inhibitor, single point]"
21,Cc1ccc(-n2[nH]c(C)c(/C=N/NC(=O)c3ccc([N+](=O)[O-])cc3)c2=O)c(C)c1,"inconclusive [inhibitor, single point]"
22,Cc1c(Cc2ccccc2)c(=O)oc2c(C)c(OCC(=O)NCc3ccccn3)ccc12,"inconclusive [inhibitor, single point]"

row,SMILES,Potency
1,COCCn1c(-c2ccco2)csc1=Nc1cccnc1,"inconclusive [inhibitor, single point]"
2,COc1cccc(N2CCN(S(=O)(=O)c3cc4c(cc3C)N(C)CCO4)CC2)c1,"inconclusive [inhibitor, partial curve, poor fit]"
3,O=C(c1ccc2ncsc2c1)N1CCN(c2cccc(C(F)(F)F)c2)CC1,inactive
4,COc1ccccc1CN1CC(C(=O)NCc2cc(F)ccc2C)CCC1=O (centres undefined),"inconclusive [inhibitor, partial curve, poor fit]"
5,COc1cccc(CCc2ccccc2OCC(CN(C)C)OC(=O)CCC(=O)O)c1 (centres undefined),active: 4.78 µM
6,CCc1sc(C(=O)NCc2ccco2)cc1C,inactive
7,COc1ccccc1N1CCN(C(=O)c2cc(=O)c3cc(C)ccc3o2)CC1,"inconclusive [inhibitor, partial curve]"
8,CC(=O)c1ccc(N2CCN(C(=O)c3c(-c4ccccc4Cl)noc3C)CC2)cc1,"inconclusive [inhibitor, partial curve, poor fit]"
9,COc1ccccc1CNC(=O)Cn1nc(C(F)(F)F)cc1C,active: 11.7 µM
10,CCN(C(=O)c1cccs1)c1nnc(-c2ccncc2)s1,inactive
11,Cc1nc(N2CCOCC2)nc(N2CCCCC2C)c1[N+](=O)[O-] (centres undefined),"inconclusive [inhibitor, single point]"
12,Cc1ccc(F)cc1NC(=O)CN1CCN(c2ccccn2)CC1,"inconclusive [inhibitor, full curve]"
13,CCOC(=O)c1[nH]c(C)c(/C(O)=C2\C(=O)C(=O)N(CCN3CCOCC3)C2c2cccs2)c1C (centres undefined),"inconclusive [inhibitor, single point]"
14,Cc1oc(=O)c(NC(=O)c2ccccc2)cc1C(N)=O,inactive
15,Cc1ccc(NC(=O)CN(C)C(=O)Cn2ncc(Cl)c(Cl)c2=O)cc1,inactive
16,Fc1ccc(CNC(=S)NCc2ccccc2)cc1,"inconclusive [inhibitor, single point]"
17,CCCn1ncc(CN2CCC(CO)(CC3CCCCO3)CC2)c1C (centres undefined),"inconclusive [inhibitor, partial curve, poor fit]"
18,COc1cc(/C=N\NC(=O)c2cccc(Cl)c2)ccc1Oc1ccc([N+](=O)[O-])cn1,"inconclusive [inhibitor, partial curve]"
19,CCn1nc(NC(=O)c2ccccn2)c2cc3cc(C)ccc3nc21,"inconclusive [inhibitor, single point]"
20,O=C(NC1CCCCCC1)C1CCN(S(=O)(=O)c2cnc[nH]2)CC1,"inconclusive [inhibitor, single point]"
21,NC(=O)c1sc2nccc(Nc3ccccc3)c2c1N,"inconclusive [inhibitor, partial curve, poor fit]"
22,CCN1/C(=C/C=C/c2oc3ccc4ccccc4c3[n+]2CC)Oc2ccc3ccccc3c21,"inconclusive [inhibitor, full curve]"

# From PubChem BioAssay AID504832 (National Center for Advancing Translational Sciences (NCATS), 2011)
